Results: PMC12040169 (PLOS Biology, 2025)
This is one part of the list.

Tested on: T1, C. trachomatis L2/434/Bu expressing GFP (CTL2-GFP)
T1 construct: L2/434/Bu GFP intracellular growth in HeLa cells
Design: species or system HeLa; C. trachomatis total inclusion area by high-content imaging, normalised to DMSO
Details: total inclusion area; 28.5 h, 10 µM; inhibitor
From the text: In this process, we also complemented the assay described above with an imaging-based readout (Fig 1B). After measurements of bulk GFP and resorufin fluorescence, cells were fixed, stained with the DNA dye Hoechst, and imaged at a high-content imaging platform to detect chlamydial inclusions (GFP) and host cell nuclei (Hoechst). The total area and number of inclusions in individual wells and the number of nuclei then served as additional proxies for chlamydial growth and host cell viability. […] MICs were calculated as described above.

Structure (SMILES)	% of control remaining
COCCNCc1cccc(OCc2ccccc2)c1 [CBK269864C]	72.5126
O=C(Cn1cccnc1=O)NCc1cccnc1OCC(F)(F)F [CBK305949]	87.0779
O=C(Nc1ccc(F)cc1)c1c(NS(=O)(=O)c2ccc(Oc3ccccc3)cc2)sc2c1CCCC2 [CBK028653]	81.8138
CN(C)CCn1c([C@@H]2CCCO2)cc2cccnc21 [CBK282288]	91.4574
CCOc1cc(/C=C2/SC(=S)N(c3cccc(C(F)(F)F)c3)C2=O)ccc1OCC(=O)O [CBK264965]	108.403
CCC1(C)CC(C(CCN)c2ccc(C)cc2)CCO1 (centres unmarked) [CBK027350]	74.1959
Cc1nc(-c2ccccc2)nc2c1c(N)nn2CC(=O)O [CBK287109]	95.6795
COc1cccc(CNC(=O)c2cc3c(nc2N)CCN(Cc2cccc(C)c2OC)C3)c1 [CBK285682]	79.6006
CCCn1nc(C)c(-c2cncn2CC(C)N2CCC(C)CC2)c1C (centres unmarked) [CBK281791]	78.7632
Cc1ccc(OC2(C(=O)N3CCCC3C(F)(F)F)CCNCC2)cc1 (centres unmarked) [CBK307226]	102.014
NCCSC1CC(=O)N(Cc2ccc(F)cc2)C1=O (centres unmarked) [CBK269025C]	60.8891
O=C1CC2(CCN(C(=O)c3ccccn3)CC2)Oc2ccc(Br)cc21 [CBK156443]	105.25
O=CN1CCc2c([nH]c3cc(F)ccc23)C12CCN(CCc1cccs1)CC2 [CBK040312]	91.3156
O=C(O)c1ccc(NC(=O)c2cn(-c3ccccc3)nc2-c2ccccc2)cc1 [CBK296120]	112.712
CN1CCN(c2nc(-c3cccc(F)c3)cnc2N)CC1 [CBK063433]	114.827
CC(=O)c1cc(-c2cccnc2)cs1 [CBK017637]	14.8287
Cn1c(=O)n(CC#N)c2ccccc21 [CBK025636]	21.2966
O=C(NCCc1c[nH]c2ccc(Cl)cc12)c1ccoc1 [CBK159782]	133.041
Cc1cn(CC(=O)N2CCC3(CCN(Cc4ccccc4)C3)C2)c(=O)[nH]c1=O (centres unmarked) [CBK136840]	83.819
Cc1ccc(NS(=O)(=O)c2cc(C(=O)Nc3cccc(N(C)S(C)(=O)=O)c3)ccc2C)c(C)c1 [CBK268220]	99.3192
Cc1cc(NC(=O)Cn2cc(Br)cn2)no1 [CBK305706]	99.0797
COc1ccc(CNC(=O)[C@H]2C=CCN2C(=O)C2CC2)cc1 [CBK282326]	79.9025
Nc1cccc(Oc2ccc3c(c2)C(=O)N(CCC(=O)O)C3=O)c1 [CBK287186]	115.683
Cc1cccc(-c2ncc(NC(=O)c3ccccn3)nc2-c2ccc(N)cc2)c1 [CBK036694]	121.394
Cn1c(=O)n(C)c2cc(S(=O)(=O)Nc3ccc(Cl)c(C(=O)O)c3)ccc21 [CBK299841]	85.4302
CCOc1nc2c(c(C(F)(F)F)n1)CC(C)C/C2=C\c1ccccc1 (centres unmarked) [CBK265800]	85.6305
O=C(/C=C/c1cccc([N+](=O)[O-])c1)Nc1ccc(Cl)c(-c2nc3ccccc3o2)c1 [CBK264610]	96.1614

Structure (SMILES)	% of control remaining
C=CCn1c(C)c(C)n2c3c(=O)n(CCN4CCOCC4)c(=O)n(C)c3nc12 [CBK269778]	71.5688
CCCn1c(SCc2nc(N)nc(Nc3ccccc3CC)n2)n[nH]c1=O [CBK296966]	86.4356
CN(c1cccc(C#N)c1)C1CCN(c2ncnc3c2cnn3C)C1 (centres unmarked) [CBK304720]	83.6618
C[C@@H]1CN(C(=O)OCCc2cccs2)C[C@H](C)O1 [CBK200416]	51.8577
COc1ccc([C@]23CC[C@H](NC(=O)c4ccc(C(F)(F)F)c(F)c4)C[C@H]2CN(C)C3)cc1OC [CBK082743T]	96.0005
O=C(Nc1ccccc1Cl)N1CCN(CCN2CCOCC2)CC1 [CBK155824]	99.3189
CC(C)(C)NC(=O)Cn1cnc2c(cnn2-c2ccccc2)c1=O [CBK269586]	105.507
COCCNC(=O)c1ccc(-c2ccccc2OC)nc1N(C)C [CBK106052]	97.3942
COc1ccc(C)cc1N(CC(=O)Nc1ccc(F)c(F)c1)S(C)(=O)=O [CBK267006]	98.3938
COc1ccc(C(=O)C2=C(O)C(=O)N(CCCN(C)C)C2c2ccncc2)cc1C (centres unmarked) [CBK264871]	107.141
CC(=O)N1CCN(Cc2oc(C)cc(=O)c2O)CC1 [CBK288383]	103.811
O=C(O)C1CCN(C(=O)Cc2c[nH]c3ccccc23)CC1 [CBK202747]	57.7329
COc1ccc([C@@]23CC[C@@H](NC(=O)Nc4cccc(Br)c4)C[C@@H]2N(C)CC3)cc1OC [CBK038225T]	79.5354
O=C(O)CCc1nc2ccccc2n1C1CCCCC1 [CBK286961]	100.738
COc1ccc(CN2CCN(C(=O)NS(=O)(=O)c3ccc(C)cc3)CC2)cc1F [CBK297156]	85.0466
CNC(=O)c1sc2ccccc2c1C1CCN(Cc2cnn(-c3ccc(F)cc3)c2)C1 (centres unmarked) [CBK285882]	85.2021
CSCCC(NC(=O)c1ccc(S(=O)(=O)N2CC(C)OC(C)C2)cc1)C(=O)O (centres unmarked) [CBK297101]	83.8332
Cc1ccccc1OCCCNCCN1CCOCC1 [CBK268590C]	86.0689
FC(F)(F)c1csc(Nc2ccc(Cl)c(Cl)c2)n1 [CBK019093]	27.4597
Cc1noc(C)c1C(=O)N1CCc2ccccc2C1 [CBK200333]	103.813
CC1CCCN(C(=O)c2cc(S(=O)(=O)N3CCOCC3)ccc2Cl)C1 (centres unmarked) [CBK305012]	82.5866
CCc1cc2c(=O)c(-c3nc(C)cs3)c(C)oc2cc1OCc1ccc([N+](=O)[O-])cc1 [CBK268305]	92.9138
O=C(NCC1CCCO1)c1sc2ccccc2c1Cl (centres unmarked) [CBK058604]	99.9096
CC(C)(C)CC(=O)N1C[C@@H]2C[C@H](C1)c1ccc(NS(=O)(=O)c3cccs3)c(=O)n1C2 [CBK288708]	103.985
O=C(NC(Cc1cccs1)c1nccs1)C1CCOC1 (centres unmarked) [CBK285054]	107.128
CCOC(=O)C(C)NC(=O)c1ccc2nc(C)sc2c1 (centres unmarked) [CBK282508]	94.9161
Cc1noc(C)c1S(=O)(=O)N1CCOCC1c1cccc(F)c1 (centres unmarked) [CBK304171]	92.1203

Structure (SMILES)	% of control remaining
Cc1nc(CN2CCC3(CC2)CN(S(C)(=O)=O)c2ccccc23)cs1 [CBK126687]	79.3371
Cn1ncnc1COc1ccc(S(=O)(=O)NC2CCCC2)cc1 [CBK306305]	31.0889
O=C(O)C[C@]1(C(=O)Nc2ccc(F)cc2)CC(/C=C/c2ccccc2)=NO1 [CBK286608]	98.0139
COc1cc(CN2CCC3(CC2)CN(C(=O)CO)c2ccccc23)cc(OC)c1OC [CBK131494]	76.5434
CC(C)(C)c1ccc(-c2cnc3ncccc3c2N)cc1 [CBK083684]	91.8464
O=C(O)c1cccc(CSc2nnc(Cc3ccccc3)[nH]2)c1 [CBK268029]	105.4
O=C1COc2ccccc2C/C=C/C[C@H]2CN(C(=O)CN3CCN(CCO)CC3)CC[C@H]2N1 [CBK292146]	75.6546
Cc1noc(C)c1Cc1ccc(C(=O)Nc2nc3ccccc3n2C)o1 [CBK299839]	100.57
CN(C)C(c1ccccc1)c1nnnn1C1CCCCC1 (centres unmarked) [CBK028032]	67.6368
Fc1ccc(OCCN2CCC3(C2)OCCc2c3[nH]c3ccccc23)cc1 (centres unmarked) [CBK061787]	63.9495
COc1ccc(Nc2ncnc3c2c(C)c(C)n3CCO)cc1 [CBK288161]	62.6496
Cn1cc(-c2nccnc2OCCn2cccc2)cn1 [CBK107079]	102.824
O=C(NCCO)C1CCCN(S(=O)(=O)c2ccc3ccccc3c2)C1 (centres unmarked) [CBK270090]	92.4579
CCN1CC2(CCC1=O)CCN(Cc1cccc(C(C)N(C)C)c1)CC2 (centres unmarked) [CBK307250]	67.7788
CN(Cc1nc2c(s1)CCCC2)C(=O)COc1ccc2nncn2n1 [CBK306758]	88.9036
COc1ccc2c(-c3ccccc3)cc(=O)n(CCS(=O)(=O)Oc3ccccc3)c2c1 [CBK296621]	118.14
O=C(O)CCc1ccc(-c2ccc(F)cc2)n1Cc1ccco1 [CBK265953]	77.6296
Cc1ccc(-c2nc3ncccc3o2)cc1NC(=O)c1ccc(F)cc1 [CBK263043]	100.064
COc1ccc(NC(=O)CSc2cnn[nH]2)cc1OC [CBK270010]	85.6318
O=C(NC(c1ccc2c(c1)CCO2)[C@H]1C[C@@H](O)C1)c1c[nH]c(=O)c(Cl)c1 (some centres unmarked) [CBK306634]	92.9645
CCC(C)(NC(=O)c1ccn(-c2cc(C)ccc2OC)n1)C(=O)OC (centres unmarked) [CBK305282]	71.4372
CCC(=O)NC1Cc2cccc3c2N(CCC3)C1=O (centres unmarked) [CBK010667]	76.609
Clc1cccc(Nc2nc(Br)cn3ccnc23)c1 [CBK066260]	94.602
CSCCC(=O)N1CCN(c2ncccn2)CC1 [CBK144509]	93.9783
Clc1ccccc1OCCNC1CCc2[nH]c3ccccc3c2C1 (centres unmarked) [CBK107790]	73.8129
COc1ccccc1OCc1cc(C)c(C(=O)N2CCN(C)CC2c2ccccc2)o1 (centres unmarked) [CBK286273]	114.705
